# Data from PubChem BioAssay (NCATS).
# Values joined by “and” are separate entries in the source; they are usually repeats but may differ in a detail not shown here. Identical values can stand only once. Inconclusive results, whose numbers are uncertain, are shown with a selection of clear calls. Entries that show only a call come without a potency. For part of these data: A potency beside an inconclusive call is a rough fit, not a confirmed value. Some compounds were tested as several samples or in several runs, with calls that do not always agree. Active and inactive are the calls of the source. Unless noted, calls follow the shape of the dose curve; as a rule, active = well fitted curve in the direction sought with a large enough effect; inconclusive = small, poorly fitted or top-dose-only effect, or another doubt; inactive = no such curve, though single readings can be large; an effect the other way counts as inactive or inconclusive.
# Tests used:
# [1] = qHTS of pediatric cancer cell lines to identify multiple opportunities for drug repurposing: Primary screen for NB1643 cells (AID 1347099); details: NB1643 neuroblastoma viability, CellTiter-Glo luminescence, 48 h; activity change, negative = cytotoxic: at 46 µM (top of the series); also: nearly all actives have a fitted effect of over 50% in size
# In short: (§1)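 Following a 5-hour attachment period, cells at 500-1,000/well received compounds and were cultured for 48 hours. CellTiter-Glo was added and luminescence read to estimate viable, metabolically active cells.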
# [2] = qHTS of pediatric cancer cell lines to identify multiple opportunities for drug repurposing: Primary screen for BT-12 cells (AID 1347101); also: nearly all actives have a fitted effect of over 25% in size
# In short: (§2)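 Cells (500-1,000/well) rested 5 h, then received compounds for 48 h; metabolically active cells were measured by CellTiter-Glo luminescence. Final concentrations spanned up to 46 µM (MIPE, 11-point) or 0.59 nM-46 µM (NPC, 8-point) in primary screens, 11-point in follow-ups.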
# [3] = qHTS of pediatric cancer cell lines to identify multiple opportunities for drug repurposing: Primary screen for Rh18 cells (AID 1347102); also: nearly all actives have a fitted effect of over 65% in size
# In short: as §2
# [4] = qHTS of pediatric cancer cell lines to identify multiple opportunities for drug repurposing: Primary screen for MG 63 (6-TG R) cells (AID 1347105); details: MG 63 (6-TG R) viability, CellTiter-Glo, 48 h; activity change, negative = cytotoxic: at 46 µM (top of the series); also: nearly all actives have a fitted effect of over 50% in size
# In short: as §1
# [5] = qHTS of pediatric cancer cell lines to identify multiple opportunities for drug repurposing: Primary screen for Rh41 cells (AID 1347108);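 also: luminescence drop marks cytotoxic hits; nearly all actives have a fitted effect of over 70% in size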
# In short: as §1
# [6] = Primary qHTS for small molecule stabilizers of the endoplasmic reticulum resident proteome: Secreted ER Calcium Modulated Protein (SERCaMP) assay (AID 1508630); details: SH-SY5Y GLuc-SERCaMP (Gaussia luciferase released on ER calcium loss) secretion, thapsigargin, luminescence; activity change, negative = inhibition: at 38.4 µM (top of the series) unless noted; also: potency is read from the fitted curve at half-maximal effect
# In short: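 The SH-SY5Y reporter protocol was run at 3 concentrations up to 38.3 uM (primary) or 11 concentrations (follow-up): 16 h compound, 100 nM thapsigargin for 4 h, then extracellular luciferase luminescence.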
# [7] = biological target: Cytochrome P450 2D6 (Homo sapiens) (UniProt P10635); assay: Cytochrome P450 family 2 subfamily D member 6 (CYP2D6) small molecule antagonists: luciferase biochemical (cell-free) qHTS assay (AID 1645840; active = well fitted curve in the direction sought with a large enough effect in the repeat runs; inconclusive = weak or mixed curves; inactive = no such curve, though single readings can be large; an effect the other way counts as inactive or inconclusive; also: nearly all actives have a fitted effect of over 55% in size; also: potency is read from the fitted curve at half-maximal effect)
# UniProt P10635, sequence (P10635 whole entry, looked up): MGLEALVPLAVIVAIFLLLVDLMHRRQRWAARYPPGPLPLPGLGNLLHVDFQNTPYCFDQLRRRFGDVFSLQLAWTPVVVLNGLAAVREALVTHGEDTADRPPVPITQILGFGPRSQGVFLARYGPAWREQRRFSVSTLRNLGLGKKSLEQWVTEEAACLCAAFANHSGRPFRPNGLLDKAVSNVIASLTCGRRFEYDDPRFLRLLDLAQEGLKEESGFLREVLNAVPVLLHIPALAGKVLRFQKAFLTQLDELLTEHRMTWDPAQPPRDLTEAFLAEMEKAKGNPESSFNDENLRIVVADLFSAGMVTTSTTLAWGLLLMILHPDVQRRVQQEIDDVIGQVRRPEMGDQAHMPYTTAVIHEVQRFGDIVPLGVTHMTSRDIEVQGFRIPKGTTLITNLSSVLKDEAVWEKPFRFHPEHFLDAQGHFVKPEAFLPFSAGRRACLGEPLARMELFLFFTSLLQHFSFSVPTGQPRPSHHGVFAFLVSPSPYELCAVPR
# In short: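 P450-Glo CYP2D6 system: proluciferin substrate converted by enzyme to luciferin, read by luminescence proportional to activity. Enzyme-substrate mix with compound 10 min at room temperature, then NADPH regeneration 1 h before detection reagent.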
# JEG-3 = assay: Primary qHTS to identify gynecologic anti-cancer compounds using libraries of approved drugs and bioactive compounds (AID 1345084); details: Gynecologic cancer cell panel viability, ATPlite luminescence, 48 h; series mostly up to 57.5 µM; also: nearly all actives have a fitted effect of over 55% in size; also: potency is read from the fitted curve at half-maximal effect
# In short: (§3)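 Cells, 1,000 per well, were allowed to settle for 16 h at 37 C before compound addition. Five concentrations were tested for 48 h, and viability was read by ATPlite luminescence after 15 min at room temperature.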
# [8] = Drug repurposing screens with cells derived from glioblastoma tumor samples (AID 1345199); details: GBM patient neurospheres viability, ATP luminescence, 48 h; Potency: tumour line A unless noted; activity, negative = cell killing: at 46 µM (top of the series), tumour line A unless noted; also: nearly all actives have a fitted effect of over 40% in size; also: potency is read from the fitted curve at half-maximal effect
# In short: (§4)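 Primary testing used CD133+ neurospheres from four GBM patients, seven concentrations, 48 h exposure and ATP-based viability; confirmation added three slower-growing patient lines.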
# [9] = P-glycoprotein substrates identified in KB-8-5-11 adenocarcinoma cell line, qHTS therapeutic library screen (AID 1346987); details: activity change, negative = cytotoxicity: at 44.5 µM (top of the series); also: nearly all actives have a fitted effect of over 65% in size; also: potency is read from the fitted curve at half-maximal effect
# In short: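 Compounds are pinned in dose-response onto KB-8-5-11 cells (500 cells/well, colchicine-free medium) and left 72 h at 37 degree C. CellTiter-Glo luminescence then yields AC50 values.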
# [10] = tested on: Nanoluciferase (engineered Oplophorus gracilirostris luciferase); assay: Primary Nanoluciferase (NLuc) qHTS assay for identification of artifact compounds. (AID 1845222); also: potency is read from the fitted curve at half-maximal effect
# In short: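 Compounds are pinned into diluted (1:55) conditioned medium of NLuc-expressing S16 cells and held 15 min at room temperature protected from light. Nano-Glo substrate follows, and luminescence is read 5 min later.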
# [11] = Primary qHTS for inhibitors of nuclear receptor binding SET domain protein 2 (NSD2) in an isogenic RCH-ACV NSD2 p.E1099K mutant (9B) (AID 1645876); details: activity change, negative = viability loss: at 44.9 µM (top of the series) unless noted; also: nearly all actives have a fitted effect of over 70% in size
# Hek293T = assay: Primary qHTS to identify gynecologic anti-cancer compounds using libraries of approved drugs and bioactive compounds (AID 1345084); details: Gynecologic cancer cell panel viability, ATPlite luminescence, 48 h, control line for the selectivity index; series mostly up to 57.5 µM; also: nearly all actives have a fitted effect of over 55% in size; also: potency is read from the fitted curve at half-maximal effect
# In short: as §3
# [12] = qHTS to identify inhibitors of the type 1 interferon - major histocompatibility complex class I in skeletal muscle: primary screen against the NCATS Pharmaceutical Collection (AID 1347407);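 also: luminescence of HiBiT knocked into endogenous HLA-B as interferon-induced MHC class I level; potency is read from the fitted curve at half-maximal effect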
# In short: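 Cells were seeded with 4 ng/ml IFN-beta, incubated 1 h, then dosed with compounds over eight 1:5 steps up to 46 uM final. After 24 h at 37 C, HiBiT lytic reagent was added and luminescence read after 10 min lysis in the dark.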
# [13] = biological target: Protein phosphatase 1D (Homo sapiens) (UniProt O15297); assay: RapidFire Mass Spectrometry qHTS Assay for Modulators of WT P53-Induced Phosphatase 1 (WIP1) (AID 1347424);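 also: amount of dephosphorylated VEPPL-S-QETFS peptide product formed by WIP1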
# UniProt O15297, sequence (O15297 whole entry, looked up): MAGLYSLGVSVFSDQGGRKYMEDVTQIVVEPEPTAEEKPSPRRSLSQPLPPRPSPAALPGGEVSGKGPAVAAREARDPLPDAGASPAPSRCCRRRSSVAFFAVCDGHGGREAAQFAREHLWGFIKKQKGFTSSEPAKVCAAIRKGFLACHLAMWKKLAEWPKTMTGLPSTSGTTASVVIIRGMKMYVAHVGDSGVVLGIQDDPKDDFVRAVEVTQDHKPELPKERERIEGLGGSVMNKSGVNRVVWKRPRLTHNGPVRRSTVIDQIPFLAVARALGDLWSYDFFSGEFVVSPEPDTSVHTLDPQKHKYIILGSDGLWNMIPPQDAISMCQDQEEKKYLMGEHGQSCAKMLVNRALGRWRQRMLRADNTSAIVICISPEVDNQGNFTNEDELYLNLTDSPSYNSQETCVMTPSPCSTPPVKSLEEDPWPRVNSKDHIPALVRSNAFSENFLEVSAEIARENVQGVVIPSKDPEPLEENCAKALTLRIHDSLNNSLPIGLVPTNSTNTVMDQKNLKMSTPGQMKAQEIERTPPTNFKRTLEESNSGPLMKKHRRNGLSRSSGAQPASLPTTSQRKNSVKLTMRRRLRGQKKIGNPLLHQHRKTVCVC
# In short: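 RapidFire mass spectrometry measured dephosphorylated peptide after 5 min room-temperature reaction of 2 uM VEPPL-pS-QETFS with 10 nM WIP1 (50 mM Tris-HCl pH 7.5, 30 mM MgCl2, 0.1 mM EGTA, BSA), following 1 hr compound preincubation; 1 uM isotope-labelled product standard.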
# astro = assay: Drug repurposing screens with cells derived from glioblastoma tumor samples (AID 1345199); details: viability, ATP luminescence, 48 h; activity, negative = cell killing: at 45.9 µM (top of the series) unless noted; also: nearly all actives have a fitted effect of over 40% in size; also: potency is read from the fitted curve at half-maximal effect
# In short: as §4
# [14] = tested on: Zika virus NS2B-NS3 protease (linked construct); assay: Primary screen NINDS Rhodamine qHTS for Zika virus inhibitors (AID 1347160)
# In short: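 Enzyme (25 nM, linked NS2B-NS3) was preincubated 15 min with compound in 10 mM Tris-HCl pH 8.0, 0.01% Tween 20. Rhodamine110 substrate (1.5 microM) was then added and fluorescence read at start and after 15 min.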
# [15] = Primary fluorescence-based thiol-reactive (MSTI) qHTS assay for identification of artifact compounds. (AID 1845221);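 also: potency is read from the fitted curve at half-maximal effect; thiol-reactive compounds lower the probe fluorescence signal; nearly all actives have a fitted effect of over 65% in size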
# In short: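 qHTS titration of compound; 4 uM MSTI, PBS pH 7.4, 2% DMSO; 1 h RT, dark; fluorescence 525/598 nm; normalized to Acetyl-MSTI and MSTI; 4-parameter Hill fit.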
# [16] = P-glycoprotein substrates identified in KB-3-1 adenocarcinoma cell line, qHTS therapeutic library screen (AID 1346986); also: nearly all actives have a fitted effect of over 60% in size
# In short: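 Viability read by CellTiter-Glo after 72 h compound exposure in dose-response of KB-3-1 and KB-8-5-11 (P-gp-high) cells. Hits needed AC50 < 10 uM, >50% maximum response and curve class -1.1 to -2.4. Cherry-picks retested ± tariquidar, including pcDNA/MDR-19 HEK-293 pair.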
# [17] = tested on: Zika virus NS2B-NS3 protease (unlinked complex); assay: Primary screen GU Rhodamine qHTS for Zika virus inhibitors: Unlinked NS2B-NS3 protease assay (AID 1347159); details: Recombinant ZIKV NS2B-NS3 protease, Rhodamine110 substrate fluorescence; activity change, negative = inhibition: at 107 µM (top of the series); also: nearly all actives have a fitted effect of over 60% in size; also: potency is read from the fitted curve at half-maximal effect
# In short: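 Enzyme 25 nM in Tris-HCl pH 8.0 + 0.01% Tween 20; compounds up to 114 microM, 15 min RT dark; + Rhod110 substrate 1.5 microM; read t0 and 15 min; delta fluorescence → % inhibition → 4-parameter Hill fit.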
# [18] = Primary qHTS for inhibitors of nuclear receptor binding SET domain protein 2 (NSD2) in an RCH-ACV wild type WT cells (2C) (AID 1645877); details: activity change, negative = cell killing: at 44.9 µM (top of the series) unless noted; also: nearly all actives have a fitted effect of over 70% in size
# [19] = Primary redox qHTS assay for identification of artifact compounds. (AID 1845223)
# In short: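 Redox-cycling detection via DTT (250 uM final) oxidation coupled to Amplex Red (25 uM)/HRP (250 mU/mL) in HBSS. 15 min preincubation plus 30 min after DTT, room temperature. Ex/Em 525/598 nm; 4-parameter Hill fit against DMSO and 10 uM DA3003.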
# PA-1 = assay: Primary qHTS to identify gynecologic anti-cancer compounds using libraries of approved drugs and bioactive compounds (AID 1345084); details: Gynecologic cancer cell panel viability, ATPlite luminescence, 48 h; series mostly up to 57.5 µM; also: nearly all actives have a fitted effect of over 55% in size; also: potency is read from the fitted curve at half-maximal effect
# In short: as §3
# Tags tell the direction and shape of the fitted curve.
smiles,measurement,setting,value
O=C(O)c1ccccc1S,Potency,[1],inactive
same,Potency,[2],inactive
same,Potency,[3],inactive
same,Potency,[4],inactive
same,Potency,[5],inactive
same,Potency,[6],"inconclusive: 10 µM [inhibitor, single point]"
same,Potency,[7],"inconclusive: 34.7 µM [inhibitor, partial curve, poor fit]"
same,Potency,JEG-3,inactive
same,Potency,[8],"inconclusive: 35.5 µM [inhibitor, partial curve, poor fit]"
Cc1c(F)cc(C(=O)NC2CC2)cc1-c1ccc(C(=O)NCC(C)(C)C)cn1,Potency,[9],inactive and active: 1.03 µM
same,Potency,[10],"inconclusive: 26.9 µM [inhibitor, partial curve, poor fit]"
same,Potency,JEG-3,inactive
OC[C@H]1O[C@@H](OC(CCCCc2ccc(O)cc2)CCc2ccc(O)cc2)[C@H](O)[C@@H](O)[C@@H]1O (some centres undefined),Potency,[11],inactive
same,Potency,Hek293T,inactive
CC(=O)CC(c1ccc([N+](=O)[O-])cc1)c1c(O)c2ccccc2oc1=O (centres undefined),Potency,[1],inactive
same,Potency,[12],active: 1.49 µM
same,Potency,[13],inactive
same,Potency,[7],inactive
same,Potency,[11],inactive
same,Potency,JEG-3,inactive
same,"activity, negative = cell killing",[8],"inconclusive: -30.8% [inhibitor] [at 21.3 µM, tumour line A]"
same,"activity, negative = cell killing",astro,inconclusive: -32.4% [inhibitor] [at 21.2 µM]
COC(=O)[C@]1(C)CCC[C@@]2(C)C(=O)CC[C@H]3C(=O)C=C(CC[C@@H]21)C3O (some centres undefined),Potency,[14],"inconclusive: 12.6 µM [inhibitor, partial curve, poor fit]"
same,Potency,[15],"inconclusive: 13.1 µM [inhibitor, partial curve]"
same,Potency,JEG-3,inactive
CC(/C=C/C1(O)C(C)(C)CC(O)CC1(C)O)OC1OC(CO)C(O)C(O)C1O (centres undefined),Potency,[16],inactive
same,Potency,[14],"inconclusive: 17.8 µM [inhibitor, single point]"
same,Potency,[15],"inconclusive: 8.22 µM [inhibitor, partial curve]"
same,Potency,JEG-3,inactive
CC(=O)c1c(O)cc(O[C@@H]2O[C@H](CO)[C@@H](O)[C@H](O)[C@H]2O)cc1O,Potency,[17],active: 31.6 µM
same,Potency,[14],"inconclusive: 14.1 µM [inhibitor, partial curve]"
same,Potency,[11],inactive
same,Potency,[18],inactive
same,Potency,JEG-3,inactive
O=C1CCC=CC1(O)C(=O)OCc1ccccc1O[C@@H]1O[C@H](CO)[C@@H](O)[C@H](O)[C@H]1O (some centres undefined),Potency,[17],inactive
same,Potency,[15],"inconclusive: 4.62 µM [inhibitor, partial curve]"
same,Potency,[19],inactive
same,Potency,JEG-3,"inconclusive: 2.24 µM [cytotoxic, full curve]"
same,Potency,PA-1,inconclusive: 4.47 µM
